# In paper PMC4336329 (PLoS ONE, 2015):
# Screen size: about 310,000 compounds; about 2,200 (0.71%) showed an effect of 50% or more. The effect is printed as a negative number. The list shows a part of the results.
# Molecular target: human ether-à-go-go-related gene (hERG) potassium channel (human, UniProt Q12809)
# Test: primary screen, population patch clamp on CHO cells stably expressing hERG
# Sequence of human ether-à-go-go-related gene (hERG) potassium channel (Q12809 whole entry, looked up): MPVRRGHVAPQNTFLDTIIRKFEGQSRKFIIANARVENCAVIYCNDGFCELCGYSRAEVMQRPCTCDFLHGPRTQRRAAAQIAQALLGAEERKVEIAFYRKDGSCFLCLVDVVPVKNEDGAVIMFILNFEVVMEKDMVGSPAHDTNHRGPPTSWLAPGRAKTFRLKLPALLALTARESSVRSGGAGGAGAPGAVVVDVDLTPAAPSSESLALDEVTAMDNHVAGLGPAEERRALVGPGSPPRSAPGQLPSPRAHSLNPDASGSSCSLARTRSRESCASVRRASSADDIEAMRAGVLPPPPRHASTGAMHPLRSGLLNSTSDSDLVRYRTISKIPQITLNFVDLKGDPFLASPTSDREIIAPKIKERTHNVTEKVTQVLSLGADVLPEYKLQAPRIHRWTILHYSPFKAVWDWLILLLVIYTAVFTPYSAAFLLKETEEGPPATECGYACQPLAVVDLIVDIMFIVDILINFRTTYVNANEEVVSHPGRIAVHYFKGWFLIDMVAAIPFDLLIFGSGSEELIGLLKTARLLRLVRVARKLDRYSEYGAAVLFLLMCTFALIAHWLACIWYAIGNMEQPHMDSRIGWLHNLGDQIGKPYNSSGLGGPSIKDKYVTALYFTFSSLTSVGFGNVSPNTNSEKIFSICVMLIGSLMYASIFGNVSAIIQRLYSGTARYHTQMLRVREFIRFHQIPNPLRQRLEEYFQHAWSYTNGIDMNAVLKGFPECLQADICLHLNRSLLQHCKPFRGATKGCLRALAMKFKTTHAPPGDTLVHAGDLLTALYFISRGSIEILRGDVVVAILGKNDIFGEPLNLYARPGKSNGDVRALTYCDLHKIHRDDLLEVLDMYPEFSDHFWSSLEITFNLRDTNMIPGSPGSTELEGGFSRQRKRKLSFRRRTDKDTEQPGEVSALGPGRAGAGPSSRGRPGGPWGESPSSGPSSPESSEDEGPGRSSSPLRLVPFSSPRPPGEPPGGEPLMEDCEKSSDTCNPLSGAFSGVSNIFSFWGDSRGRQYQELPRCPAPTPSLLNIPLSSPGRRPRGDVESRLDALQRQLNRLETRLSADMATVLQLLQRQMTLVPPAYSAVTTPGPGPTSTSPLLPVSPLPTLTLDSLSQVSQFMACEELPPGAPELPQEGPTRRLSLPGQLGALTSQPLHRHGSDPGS
row,Structure (SMILES),"hERG current change (%, negative = inhibition) at 1uM [%]"
1,O=C(Nc1ccc(F)c(Cl)c1)c1ccc2c(=O)n3c(nc2c1)CCCCC3,-6.01
2,COc1ccc2cc3cc(C(=O)NC(C)C)oc3nc2c1,9.83
3,COc1ccc(C(=O)c2sc(Nc3ccccc3)c(C(=O)Nc3ccc(OC)c(OC)c3)c2N)cc1,7.84
4,O=C(/C(=C\c1ccccc1)c1nc2ccccc2[nH]1)c1ccc(Cl)cc1,15.1
5,Cc1ccc(NC2CCCN(C(=O)c3cccnc3)C2)cc1C (stereo not shown),12.2
6,O=C(CS(=O)CC(=O)Nc1ccccc1-c1ccccc1)Nc1ccc(F)cc1 (stereo not shown),8.6
7,CC(=O)O/N=C/c1c(N2CCOCC2)n(C)c2ccccc12,-7.31
8,O=C(O)CSc1c2ccccc2cc2ccccc12,9.22
9,COc1cc(C(=O)N=c2sccn2C)c([N+](=O)[O-])cc1OC,18
10,CCN1C(=O)c2ccccc2S(=O)c2ccc(C(=O)N3CCCCCC3)cc21 (stereo not shown),3.93
11,CCC(C)(C)NC(=O)c1cc(S(=O)(=O)N2CCc3ccccc32)cn1C,0.204
12,CCOc1cc(/C=C2\COc3ccccc3C2=O)cc(Br)c1OCC(=O)N(C)C,9.06
13,CCOc1ccc(NC(=O)CCN2CCCCC2)cc1,3.51
14,COC(=O)CC1COc2ccccc2N1C(=O)c1cccc(Cl)c1 (stereo not shown),10.2
15,CCCCn1c(=S)[nH]c2ccccc2c1=O,14.1
16,Cc1cccc(C)c1NC(=O)CCCSc1nc2ccccc2s1,11.3
17,O=C(NNc1nc(-c2ccc(Br)cc2)cs1)c1ccco1,0.235
18,CCOC(=O)c1cnn(-c2nc(-c3ccccc3)nc3c2COC(C)(C)C3)c1N,13
19,CCOc1ccc(CCNC(=O)Nc2ccccc2)cc1OCC,14.3
20,CC(CCC(=O)O)(c1ccc(O)cc1)c1ccc(O)cc1,8.24
21,CCOC(=O)c1sc(NC(=O)/C=C/c2c(F)cccc2Cl)nc1C,6.05
22,O=C(COc1cc2oc(=O)c3c(c2cc1Cl)CCC3)Nc1ccccn1,25.5

row,Structure (SMILES),"hERG current change (%, negative = inhibition) at 1uM [%]"
1,Cc1ccc(S(=O)(=O)NCC(=O)OCC(=O)N2CCc3ccccc32)cc1,7.58
2,CCC(C)NC(=S)N1CCN(C)CC1.O=C(O)C(=O)O (stereo not shown),6.59
3,O=C(NC1CCCCC1)C1CCCN1S(=O)(=O)c1cccc2nsnc12 (stereo not shown),0.411
4,C=CCN1CCC2(C)c3cc(O)ccc3CC1C2C.Cl (stereo not shown),0.0104
5,Cc1cc(NC(=O)CSc2ncnc3c2cnn3-c2ccccc2)no1,1.35
6,Nc1ncnc2nc(SCCc3ccccc3)[nH]c12,7.78
7,Fc1ccccc1OCCCCSc1ncccn1,-3.5
8,CCn1c(SCC(=O)n2c(C)c(C)c3ccccc32)nnc1-c1ccco1,4.66
9,COc1ccc(CCN2CC(C(=O)N(C)Cc3cccnc3)CC2=O)cc1OC (stereo not shown),12.1
10,COc1ccc(NS(=O)(=O)c2cc([N+](=O)[O-])ccc2N/N=C\c2c(C)[nH]c3ccccc23)cc1,21.6
11,CCCCc1ccc(NC(=S)NCC2CCCO2)cc1 (stereo not shown),5.49
12,COC(=O)c1ccc(C(=O)OC)c(NC(=S)N2CCN(c3ccccc3F)CC2)c1,-29.5
13,O=C(O)CC(CP(=O)(c1ccccc1)c1ccccc1)C(=O)O (stereo not shown),6.5
14,CC(=O)N1CCc2ccc(S(=O)(=O)N3CCc4ccccc43)cc21,-8.82
15,COc1ccccc1N1CCN(C2CCCN(Cc3cccc(O)c3)C2)CC1 (stereo not shown),4.93
16,COc1ccccc1NCC(=O)c1ccc(Cl)cc1,14.4
17,CC1CC(NC(=O)/C=C/C(=O)O)CC(C)(C)C1 (stereo not shown),14.1
18,O=C(CSc1nnc(-c2ccccc2Cl)o1)Nc1ccccn1,12.5
19,COc1ccc(C)cc1NC(=O)Nc1ccccc1SC,7.54
20,Nc1cc(OC(=O)c2ccccc2Br)nn1S(=O)(=O)c1ccccc1,16.2
21,COc1ccc(OCC(=O)N2CCN(C(=O)c3ccc([N+](=O)[O-])cc3)CC2)cc1,-43.2
22,CCOc1ccccc1NC(=S)Nc1ccc2cn[nH]c2c1,8.93

row,Structure (SMILES),"hERG current change (%, negative = inhibition) at 1uM [%]"
1,COc1cc(/C=C2\C(=N)N3N=C(C)SC3=NC2=O)cc(OC)c1OCCOc1ccccc1C,16.6
2,CC1CCN(S(=O)(=O)c2cccc(-c3csc(-c4cccnc4)n3)c2)CC1,3.5
3,O=C(CSc1nnc(-c2ccccc2)o1)OCc1ccccc1,13.1
4,Cc1ccc(N2CC3=C(C2=O)C(c2ccccc2)NC(=O)N3C)cc1 (stereo not shown),6.1
5,COc1ccc(CCNC(=O)CSc2c[nH]c3ccccc23)cc1OC,1.43
6,N#C/C(=C\c1ccc(N2CCOCC2)o1)C(=O)NC1CCCCC1,10.1
7,CN(C)C(=O)CN1CCN(c2nc3nonc3nc2N2CCCCC2)CC1,4.21
8,Cc1ccc2c(=O)cc(C(=O)NCCc3ccc(S(N)(=O)=O)cc3)oc2c1,14.4
9,COc1ccc(S(=O)(=O)N(C)CC(=O)N2CCCCCC2)cc1,18
10,Cc1ccc(NC(=O)COC(=O)c2cccc3c(=O)c(C)c(-c4ccccc4)oc23)cc1,8.91
11,COc1ccc(-n2c(C)cc(C(=O)COC(=O)c3cc(NC(=O)c4cccs4)c(OC)c(OC)c3)c2C)cc1,7.28
12,CCC(=O)N(Cc1ccco1)c1nc(-c2ccc(OC)cc2)cs1,5.7
13,Cc1c(Cc2ccccc2)sc(NC(=O)C(C)(C)C)c1C(N)=O,0.402
14,O=S(=O)(NC(=NCc1ccccc1)c1ccc(F)cc1)c1ccc(Cl)cc1,19.9
15,COc1ccc(C(=O)N(C)CC(O)c2ccccc2)cc1OC1CCN(C(C)=O)CC1 (stereo not shown),7.98
16,Cc1[nH]n(-c2ccc(F)cc2)c(=O)c1/C=N/c1sc2c(c1C#N)CCCC2,18.2
17,CCc1ccc(/C=C2\Oc3cc(OC(=O)N4CCOCC4)ccc3C2=O)cc1,15.6
18,CNc1nc(-c2c(C)[nH]c3ccc(OC)cc23)cs1,8.83
19,Brc1ccc(Nc2c3c(nc4ncnn24)CCC3)cc1,-7.63
20,COc1ccc(CN(C)C(=O)Cc2ccc(S(=O)(=O)N3CCOCC3)s2)cc1OC,15.7
21,COc1ccc(C(=O)Oc2cc(/C=N/NS(=O)(=O)c3ccccc3)ccc2OC)cc1,10.6
22,CCOc1ccc(C(=O)NC(=S)NCc2cccnc2)cc1,14.6

row,Structure (SMILES),"hERG current change (%, negative = inhibition) at 1uM [%]"
1,O=C(Nc1ccncc1)Nc1ccc(F)cc1F,20.1
2,C[C@H](NC(=O)OCc1ccccc1)C(=O)NNC(=O)[C@H](C)NC(=O)OCc1ccccc1,13.4
3,Cc1cccc(NC(=O)NCC2CCN(c3ccc(S(=O)(=O)N4CCOCC4)cc3)CC2)c1,8.19
4,O=S(=O)(c1ccc(SCc2ccccc2)nc1)N1CCCCCC1,5.08
5,COc1ccc(OC)c2sc(N(CCN(C)C)C(=O)c3cc(Cl)sc3Cl)nc12.Cl,11.4
6,CCOC(=O)CCCn1nc(C)n2c(cc3sccc32)c1=O,-7.67
7,COc1ccc(NC(=O)c2cc([N+](=O)[O-])ccc2NC(=O)CNCc2ccccn2)c(OC)c1,9.51
8,Cc1ccc(S(=O)(=O)Nc2nc(C)c(C(=O)N/N=C/c3ccccc3)s2)cc1,11
9,COc1ccc(C(=O)Nc2ccc(S(=O)(=O)N3CCN(C)CC3)cc2)cc1,16.1
10,O=C(Nc1nc2c(s1)CCCC2)C1COc2ccccc2O1 (stereo not shown),8.29
11,Cc1ccc(C)c(SCC(=O)NNC(=O)c2csc(N3CCOCC3)n2)c1,-25.3
12,CSc1cccc(NC(=S)N2CCC(N(C)C3CCCCC3C)CC2)c1 (stereo not shown),-20.1
13,COC(=O)CCC(=O)N1CCOCCOCCOCC1,7.09
14,CC(Cc1ccccc1)NC(=O)/C=C/c1ccc([N+](=O)[O-])cc1 (stereo not shown),-13.4
15,COc1ccc(-c2nc3c(c4nnc(SC(C)C(=O)Nc5ccccc5)n24)COC(C)(C)C3)cc1 (stereo not shown),5.68
16,CCOc1ccc(S(=O)(=O)Nc2cccc(C(=O)N3CCN(c4cccc(OC)c4)CC3)c2)cc1,13
17,O=C(NCc1cccs1)C1CCCN(S(=O)(=O)c2cnc[nH]2)C1 (stereo not shown),13
18,CC1(C)NC(=O)N(CCOc2ccc3c(c2)CCC3)C1=O,0.869
19,COCCNC(=O)CN1CCC(NC(=O)Nc2ccc(C(F)(F)F)cc2)CC1,-19.5
20,COc1cccc(CN(C)C(=O)c2ccc(OCC(=O)Nc3cccc(C(F)(F)F)c3)c(OC)c2)c1,1.15
21,CC1=NN(/C(=N\c2nnc(C)s2)Nc2ccccc2)[C@H](c2ccc(C)cc2)S1,4.95
22,COc1ccc(NC(=O)CN(C)C(=O)c2cnc(Cl)c(Cl)c2)cc1,5.13
